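These data come from cells grown in 96-well plates and exposed to compound for 48 hours at five concentrations. GI50 is the concentration that inhibits growth by half.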 Calls of active or inactive are those of the source. Rule as the data show it: active = GI50 up to about 1.1 µM and inactive = higher.
Each compound was assayed on NCI-H322M (assay: NCI anticancer screen, dose series, 48 h).

| Structure (SMILES) | GI50 |
| --- | --- |
| COc1ccc2c(c1)/C(=C\c1c(Cl)nc3sc(C)cn13)C(=O)N2 | inactive: 6.85 µM |
| C[C@H](CCC(=O)O)[C@H]1CC[C@H]2[C@@H]3CC[C@@H]4C[C@H](O)CC[C@]4(C)[C@H]3C[C@H](O)[C@]12C [DEOXYCHOLIC ACID] | inactive: 43.7 µM |
| COC(=O)[C@H]1C=C[C@@H](C)n2c(=O)c3cc4ccccc4cc3c(=O)n21 | inactive: > 100 µM |
| COc1ccccc1NC(=O)C1=C(C)NC(C)=C(C(=O)Nc2ccccc2OC)C1c1ccccc1OC | inactive: > 100 µM |
| COC(=O)Nc1nc2cc(C(=O)c3cccs3)ccc2[nH]1 [NOCODAZOLE] | active: 0.0234 µM |
| C=CCN1CCC(OC(=O)C(O)(/C=C\CC)C2CCCC2)CC1 (stereo not drawn) | inactive: > 100 µM |
| CC(C)(C)c1cc(C(P(=O)(c2ccccc2)c2ccccc2)P(=O)(c2ccccc2)c2ccccc2)cc(C(C)(C)C)c1O | inactive: 2.61 µM |
| CN(CCN1C(=O)c2cccc3cccc(c23)C1=O)CCN1C(=O)c2cccc3cccc(c23)C1=O | inactive: 10.6 µM |
| CN(/N=C(\C(=O)O)c1ccccc1)C1=NCCN1 | inactive: > 100 µM |
| COc1cc([C@@H]2c3cc4c(cc3[C@@H](OC3OC5CO[C@@H](c6cccs6)OC5C(O)C3O)[C@H]3COC(=O)[C@H]23)OCO4)cc(OC)c1O (stereo partly drawn) | inactive: 2.95 µM |
| COC(=O)c1ccc(CCc2cc(O)ccc2O)cc1 | inactive: 44.1 µM |
| CN(/C(=N\O)c1ccccc1)c1ccccc1 | inactive: 75.7 µM |
| CC(C)(C)OC(=O)N(O)CCCn1cnc2c(NC3CC3)ncnc21 | inactive: > 100 µM |
| O=C(O)CSCC(=O)c1ccccc1 | inactive: > 100 µM |
| C/C(=N\NC(N)=S)c1cc(C)c(C)cc1C | inactive: > 100 µM |
| CC1N=C(c2ccccc2)OC1=O (stereo not drawn) | inactive: > 100 µM |
| COC(=O)C1(NC(=O)C(N)CC(=O)O)C(C)C1C (stereo not drawn) | inactive: > 100 µM |
| CC(=O)[C@H]1CC[C@@H]2[C@]1(C)CC=C1[C@]23C=C[C@]2(C[C@@H](O)CC[C@]12C)C(C(=O)O)C3C(=O)O (stereo partly drawn) | inactive: > 100 µM |
| N=C(N)NC(=N)Nc1c(F)c(F)c(F)c(F)c1F | inactive: > 100 µM |
| CN1CCCc2nc3ccccc3n2C1 | inactive: > 100 µM |
| COC1(OC)CC(CO)(CNc2nc(N)nc(Cl)c2C=O)C1 | inactive: 34.7 µM |

| Structure (SMILES) | GI50 |
| --- | --- |
| CC[S+](C)c1ccc(-c2c3nc(c(-c4ccc([S+](C)CC)cc4)c4ccc([nH]4)c(-c4ccc([S+](C)CC)cc4)c4nc(c(-c5ccc([S+](C)CC)cc5)c5ccc2[nH]5)C=C4)C=C3)cc1.[O-][Cl+3]([O-])([O-])[O-].[O-][Cl+3]([O-])([O-])[O-].[O-][Cl+3]([O-])([O-])[O-].[O-][Cl+3]([O-])([O-])[O-] (stereo not drawn) | inactive: 8.97 µM |
| C=COC(=O)N1C2CCCC(Cl)(C(C)=O)C1CC2 (stereo not drawn) | inactive: > 100 µM |
| COC(=O)C1=CCC[C@H]2[C@@]1(COC(C)=O)CC[C@@H](C)[C@]2(C)CC(=O)c1ccoc1 | inactive: 28.6 µM |
| COc1ccccc1-c1cc(O)c2c(C)cc(C)nc2n1 | inactive: 66.5 µM |
| Cc1c2c(C(N)=O)nccc2c(C)c2c1c1ccccc1n2Cc1ccccc1 | inactive: 13.6 µM |
| CSc1ccc(N2C(=O)C3c4[nH]c5ccccc5c4C4CCC(C(C)(C)C)CC4C3C2=O)cc1 (stereo not drawn) | inactive: 17.3 µM |
| CC1CC[C@@]2(OC1)OC1C[C@H]3[C@@H]4CCC5CC(O)CC[C@]5(C)[C@H]4C/C(=N\N(C)C)[C@]3(C)C1[C@@H]2C (stereo partly drawn) | inactive: 21.2 µM |
| CCC[C@@H]1C(=O)N=C(N)N1C(=O)OCc1ccccc1 | inactive: > 100 µM |
| C[C@]1(S(=O)(=O)c2ccccc2)C[C@H]2N(Cc3ccccc3)[C@@H]1CCC21OCCO1 | inactive: > 100 µM |
| O=C1Nc2ccccc2/C1=C\c1c(Cl)nc2n1CCS2 | inactive: 34.1 µM |
| O=C(O)c1cc(O)nc(S)n1 | inactive: > 100 µM |
| CC1=C(C#N)C2C(=C(N)Oc3ccccc32)C(N)=N1 (stereo not drawn) | inactive: 19 µM |
| Cn1/c(=N\c2ccccc2[N+](=O)[O-])sc2ccccc21 | inactive: 83.6 µM |
| CCN(CC)/[N+]([O-])=N/OC | inactive: > 100 µM |
| N#Cc1ccc(C(C2C(=O)NC(=O)NC2=O)C2C(=O)NC(=O)NC2=O)cc1 | inactive: > 100 µM |
| CC1(Sc2ccccc2)CN(Cc2ccccc2)C1=O (stereo not drawn) | inactive: > 100 µM |
| CC[C@@H]1CC[C@@H]2[C@H](CC[C@]3(C)[C@@H](OS(=O)(=O)c4ccc(C)cc4)CC[C@@H]23)[C@H]1CO | inactive: > 100 µM |
| CN1CCN(c2ccc3[nH]c(-c4ccc5[nH]c(CCCc6ccc(N(CCCl)CCCl)cc6)nc5c4)nc3c2)CC1 | inactive: > 100 µM |
| [O-][S+](c1ccc(O)cc1)c1ccc(O)cc1 | inactive: > 100 µM |
| CS(=O)(=O)CCC1CCC(=O)O1 (stereo not drawn) | inactive: > 100 µM |
| Cn1/c(=N\N=C(\CNCCO)[C@@H](O)[C@@H]2OC(c3ccccc3)OC[C@H]2O)sc2ccccc21 (stereo partly drawn) | inactive: 18.9 µM |

| Structure (SMILES) | GI50 |
| --- | --- |
| CCOP(=O)(OCC)OC(C#N)c1ccc(-c2ccccc2)cc1 (stereo not drawn) | inactive: 71.8 µM |
| C=CC1(C)CCC2=C(CCC3C(C)(C(=O)OC)CCCC23C)C1=O (stereo not drawn) | inactive: 22 µM |
| CCc1ccccc1N1CCN(C(=O)c2cc(OC)c(OC)c(OC)c2)CC1 | active: 0.0731 µM |
| CC(C)(C)OC(=O)c1ccc(NCc2cc(O)ccc2O)cc1 | inactive: 15 µM |
| COC(=O)CC1CN(C(=O)OCc2ccccc2)C(C)(C)O1 (stereo not drawn) | inactive: > 100 µM |
| CCOC(=O)/C(=C\NC(=S)Nc1ccc(Cl)c(Cl)c1)C(=O)c1ccccc1 | inactive: 69.3 µM |
| CCN(CC)c1ccc(/N=N/c2ccc(-c3nc4ccc[n+](C)c4o3)cc2)cc1 | inactive: 16 µM |
| C=C(C)CC1(O[Si](C)(C)C)C(=O)C(OCC)=C1OCC (stereo not drawn) | inactive: > 100 µM |
| CN(C)/C(N)=N\C#N | inactive: > 100 µM |
| CCOC(=O)N/N=C(/N)Cc1ccc(Cl)cc1 | inactive: > 100 µM |
| CC1(F)C=CC(=O)C=C1 | inactive: > 100 µM |
| O=C(/C=C/c1c(O)ccc2ccccc12)c1ccc([N+](=O)[O-])cc1 | inactive: > 57.8 µM |
| [N-]=[N+]=Nc1c(N2CCOCC2)c(Cl)nc2ccccc12 | inactive: 95.9 µM |
| CC(C)[C@H]1CO[C@]2(C)[C@@H]3CN(Cc4ccccc4)C[C@@H]3C(=O)N12 | inactive: > 100 µM |
| Cc1nc2c(cc1C(=O)N/N=C/c1ccc([N+](=O)[O-])cc1)c(=O)n(C)c(=O)n2C | inactive: > 100 µM |
| CC(=O)C1=C(C)N(c2ccccc2)C2(O)C=CC(O)=C3C(=O)c4ccccc4C(=O)C312 (stereo not drawn) | inactive: 18.3 µM |
| O=c1c(-c2ccc(Cl)cc2)nnc2n(Cc3ccccc3)c3ccccc3n12 | inactive: > 100 µM |
| CC1(C)OC2OC(C(COS(=O)(=O)C(F)(F)F)N=[N+]=[N-])C(OC(=O)c3ccccc3)C2O1 (stereo not drawn) | inactive: > 100 µM |
| Cn1c(=O)c2c3ccccc3c(C(=O)c3ccccc3)n2c2ccccc21 | inactive: > 100 µM |
| OCCN(CCO)c1cccc(N(CCO)CCO)n1 | inactive: > 100 µM |
| CCOC(=O)c1c(-c2ccc(OC)cc2)c(C#N)c(=S)n(C2OC(COC(C)=O)C(OC(C)=O)C(OC(C)=O)C2OC(C)=O)c1C (stereo not drawn) | inactive: > 100 µM |
